In all, about 310,000 compounds went through this assay and about 2,200 (0.71%) showed an effect of 50% or more. Effects have a minus sign here. The list shows a part of the results.
Target: human ether-à-go-go-related gene (hERG) potassium channel (human, UniProt Q12809)
Assay: primary screen, population patch clamp on CHO cells stably expressing hERG

human ether-à-go-go-related gene (hERG) potassium channel, sequence (Q12809 whole entry, looked up): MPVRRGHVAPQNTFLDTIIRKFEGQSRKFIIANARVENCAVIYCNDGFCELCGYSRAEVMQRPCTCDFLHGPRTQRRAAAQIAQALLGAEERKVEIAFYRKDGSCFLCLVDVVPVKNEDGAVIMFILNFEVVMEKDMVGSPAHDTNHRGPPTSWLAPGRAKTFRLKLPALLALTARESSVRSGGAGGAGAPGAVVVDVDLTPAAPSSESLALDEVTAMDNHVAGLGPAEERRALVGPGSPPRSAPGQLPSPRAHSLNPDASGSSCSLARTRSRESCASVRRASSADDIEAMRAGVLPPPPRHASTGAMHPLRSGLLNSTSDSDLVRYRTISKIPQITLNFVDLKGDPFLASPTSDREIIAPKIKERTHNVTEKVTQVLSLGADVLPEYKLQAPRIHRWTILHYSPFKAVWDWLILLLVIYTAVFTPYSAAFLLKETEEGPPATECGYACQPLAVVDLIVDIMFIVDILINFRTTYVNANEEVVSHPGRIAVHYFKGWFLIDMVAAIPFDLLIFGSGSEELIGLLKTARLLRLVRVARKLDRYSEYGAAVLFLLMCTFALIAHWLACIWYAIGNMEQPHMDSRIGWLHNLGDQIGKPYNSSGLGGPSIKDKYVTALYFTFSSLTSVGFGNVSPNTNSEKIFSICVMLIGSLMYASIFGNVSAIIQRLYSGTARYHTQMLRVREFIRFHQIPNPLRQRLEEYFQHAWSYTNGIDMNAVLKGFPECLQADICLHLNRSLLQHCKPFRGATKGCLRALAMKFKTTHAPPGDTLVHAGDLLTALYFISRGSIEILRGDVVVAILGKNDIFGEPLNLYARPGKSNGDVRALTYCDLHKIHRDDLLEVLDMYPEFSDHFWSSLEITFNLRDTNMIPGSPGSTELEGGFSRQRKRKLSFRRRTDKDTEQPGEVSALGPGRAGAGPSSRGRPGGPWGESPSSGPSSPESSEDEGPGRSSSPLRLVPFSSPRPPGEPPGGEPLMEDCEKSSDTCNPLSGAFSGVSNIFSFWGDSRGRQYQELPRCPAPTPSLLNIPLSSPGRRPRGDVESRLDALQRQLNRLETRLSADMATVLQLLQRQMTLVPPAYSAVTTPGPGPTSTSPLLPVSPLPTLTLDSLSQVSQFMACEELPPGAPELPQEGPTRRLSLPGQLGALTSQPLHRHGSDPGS

Row | Structure (SMILES) | hERG current change (%, negative = inhibition) at 1uM [%]
1 | CC(C)Cc1nnc(NC(=O)CCC(=O)NCc2ccccc2Cl)s1 | 13.1
2 | Cc1ccc(CS/C(Nc2ccccc2C)=C(\C#N)C(N)=O)c(C)c1 | 12.1
3 | CC1=C(c2ccccc2)[N+](=O)C2(CCCC2)N1[O-] | 15.2
4 | CC(C)CNC(=O)CC(c1ccccc1)c1ccccc1 | 6.28
5 | Cc1cc(C)c(NC(=O)CN2CCOCCOCCOCCOCC2)c(C)c1 | 0.747
6 | Cc1ccc(-c2cc(-c3ccccc3)nc(N(C)N)n2)cc1 | 15.5
7 | CC(C)(C)NC(=S)NCc1ccncc1 | 1.31
8 | COc1ccccc1N(C(=O)c1snc(C(N)=O)c1N)C(C(=O)NC1CCCC1)c1ccco1 (centres unmarked) | -3.74
9 | Cc1ccc2nc(SCc3nnc(-c4cccs4)o3)[nH]c2c1 | 11.2
10 | CSc1nnc2c(n1)OC=Nc1ccccc1-2 | 1.95
11 | COc1cc(C(=O)C(=O)c2ccc(O)c(OC)c2)ccc1O | 13.8
12 | CCOC(=O)N1CCN(S(=O)(=O)c2cc3c(cc2C)NC(=O)CO3)CC1 | -11.6
13 | O=C(Oc1ccc2ccc(OC(=O)N3CCOCC3)cc2c1)N1CCOCC1 | 1.33
14 | CC(=O)N[C@@H](Cc1c[nH]c2ccccc12)C(=O)NCc1ccccc1 | 13.9
15 | Brc1ccc(C=Nc2ccc3c(c2)OCCOCCOCCO3)s1 | -58.3
16 | Cc1ccc(S(=O)(=O)N(CC(=O)NCc2ccncc2)Cc2ccc(F)cc2)cc1 | -75
17 | COC(=O)C1=C(C)n2cnnc2NC1c1ccc(Cl)cc1 (centres unmarked) | 11.7
18 | CSc1ccccc1C(=O)C1CCCN(C(=O)c2cc(C(C)C)no2)C1 (centres unmarked) | -1.05
19 | CCOC(=O)C1=NNC2(c3ccc(Cl)cc3)C(=O)N(c3ccc(C)cc3)C(=O)C12 (centres unmarked) | 10.8
20 | Cc1cc(C)c(NC(=O)CCCN2CCOCC2)c(C)c1 | 16
21 | COc1ccc(OCC(=O)N2CCN(c3nnc(-c4ccc(C)cc4)c4ccccc34)CC2)cc1 | 1.41
22 | O=C(OCCCCN1C(=O)c2ccccc2C1=O)c1n[nH]c2ccccc12 | 21.9
23 | Cc1ccc(-n2cc(CN(C)Cc3ncc[nH]3)c(-c3cccc(C)c3)n2)cc1 | 13.4

Row | Structure (SMILES) | hERG current change (%, negative = inhibition) at 1uM [%]
24 | CCCCc1c(O)nc(SCC(=O)O)[nH]c1=O | 26.5
25 | O=C(CN(Cc1ccco1)S(=O)(=O)c1ccccc1)N/N=C/c1ccccc1C(=O)O | 11.3
26 | COc1ccc(NC(=O)CSc2ccc(-c3ccccn3)nn2)cc1OC | -1.9
27 | CCOC(=O)C1=NOC(CNC(=O)C2=NOC(CNC(=O)c3c(-c4ccccc4Cl)noc3C)C2)C1 (centres unmarked) | -1.55
28 | CCC(C)(C)NC(=O)C(c1ccc(OC)cc1)N(C(=O)CCC(=O)Nc1cc(C)on1)c1ccc(OC)c(OC)c1 (centres unmarked) | 10.2
29 | CCCCCCCSc1nnc(N)s1 | 10.4
30 | O=C(c1cnsn1)N1CCN(c2ccccn2)CC1 | 15
31 | CCN1CCc2c(sc(NC(=O)C3CCCCC3)c2C(=O)OC)C1.Cl | 12.1
32 | COc1ccc(CCNC(=O)Cc2ccsc2)cc1 | 14
33 | COc1ccc(/C=C/C(=O)Nc2ccc3nc4n(c(=O)c3c2)CCCC4)cc1OC | 11.4
34 | O=C(NCCS(=O)(=O)NCc1ccco1)c1ccccc1 | 10
35 | O=C(Nc1cccc(NC(=O)c2ccccc2F)c1)c1ccccc1 | 6.76
36 | COc1ccc([N+](=O)[O-])cc1NC(=O)CC(c1ccccc1)c1ccccc1 | 2.48
37 | COc1ccc2cc(C3c4cc(OC)c(OC)cc4CCN3C(=O)c3ccco3)c(=O)[nH]c2c1 (centres unmarked) | 5.36
38 | CCc1cccc(OCC(=O)N(C)CC(=O)Nc2cccc(F)c2)c1 | -15.7
39 | CCn1c(CCc2ccccc2)n[nH]c1=S | 9.3
40 | C/C(=N\N=C1/NC(=O)C(C)S1)c1ccc([N+](=O)[O-])cc1 (centres unmarked) | 0.621
41 | COc1ccc(NS(=O)(=O)c2cc(NC(=O)c3cnc(C)cn3)ccc2N2CCCC2)cc1 | 12.3
42 | COc1ccc(-c2noc(CN3CCOCC3)n2)cc1OC | -2.66
43 | CCOC(=O)c1sc(NC(=O)CCN2CCOCC2)c(C(=O)OCC)c1C | -6.23
44 | CCOC(=O)C1CCCN(c2c(NCCCN3CCCC(C)C3)c(=O)c2=O)C1 (centres unmarked) | 11.3
45 | Cc1ccc(S(=O)(=O)N2CCN(C3CCN(Cc4ccccc4)CC3)CC2)cc1.O=C(O)C(=O)O | -75.3
46 | O=C(c1ccco1)N1CCN(C2CC(=O)N(c3ccccc3)C2=O)CC1 (centres unmarked) | 10

Row | Structure (SMILES) | hERG current change (%, negative = inhibition) at 1uM [%]
47 | Cc1ccc(-c2csc(C3=C(O)CN(NC(=O)c4ccco4)C3=N)n2)cc1 | 11.2
48 | CCOC(=O)c1c(C)[nH]c(C)c1S(=O)(=O)NCC(=O)Nc1ccccn1 | 17.5
49 | Cc1nc(NCc2ccco2)c2oc3ccccc3c2n1 | -14.3
50 | CC(C)(C)c1cc[n+](C2=C([O-])c3ccccc3C(=O)/C2=N\S(=O)(=O)c2cccs2)cc1 | -4.41
51 | CCN(CC)CCOC(=O)c1ccc(NC(=O)c2cccc(C)c2[N+](=O)[O-])cc1 | 4.93
52 | COc1cccc(C2C(C(=O)c3ccc(C)o3)=C(O)C(=O)N2CCN2CCOCC2)c1OC (centres unmarked) | 9.54
53 | COc1ccc(-c2nn(-c3ccccc3)cc2/C=C/C(=O)OCC(=O)Nc2ccc(C#N)cc2)cc1 | 14.9
54 | O=C(NCCc1ccccc1)c1cccc(N2CCCC2=O)c1 | 16.4
55 | O=C(COc1ccc(Cl)cc1)NC1CC1 | 3.73
56 | COC(=O)c1cc(Cl)c(NC(=O)c2ccc(F)cc2)cc1OC | -2.93
57 | Cc1nnc(SCC(=O)c2ccc(Br)cc2)s1 | 10.7
58 | O=c1c2c(-c3cccs3)csc2ncn1/N=C/c1ccc(OC(F)F)cc1 | 7.53
59 | COc1ccc2nc(C)cc(SCC(=O)N/N=C/c3ccccc3)c2c1 | 12.9
60 | C=CCC(=O)N1CCC(n2nccc2NC(=O)CCOc2ccccc2)CC1 | 13.2
61 | O=C(c1ccc(=O)oc1)N1CCOCC1 | 6.35
62 | O=C1C2C3c4ccccc4C(c4ccccc43)C2C(=O)N1/N=C/c1cccc(O)c1 (centres unmarked) | 10
63 | CCCOP(=O)(OCCC)C(Nc1ccc(C(C)C)cc1)c1ccc([N+](=O)[O-])cc1 (centres unmarked) | -1.78
64 | CCc1c(C)sc(NC(=O)C2CC2c2ccccc2)c1C(N)=O (centres unmarked) | 12.4
65 | O=C1CCC(C(=O)N2CCN(c3ccc(F)cc3)CC2)CN1CC1CCCCC1 (centres unmarked) | -13.9
66 | O=C(NCc1nc2ccccc2[nH]1)C1=C[C@H](c2ccc(C(F)(F)F)cc2)C[C@H](OCCCCO)O1 | 4.62
67 | Cc1cc(C)nc(-n2cc(C(=O)c3cc(F)ccc3O)cn2)n1 | 12.8
68 | Cc1nn(Cc2ccc([N+](=O)[O-])cc2)c(=O)n1-c1ccccc1Cl | 3.9
69 | O=[N+]([O-])c1cccc(/C=N/n2cnnc2)c1 | 8.79

Row | Structure (SMILES) | hERG current change (%, negative = inhibition) at 1uM [%]
70 | CCOc1ccc(CCNC(=O)CCNC(=O)c2ccc(Br)cc2)cc1OCC | 8.36
71 | Cc1cc(C=O)c(C)n1-c1cc(C(=O)O)cc(C(=O)O)c1 | 11.9
72 | CCCCc1ccc(C(=O)O)nc1 | 9.24
73 | O=C(COc1ccc(S(=O)(=O)N2CCCC2)cc1)Nc1ccc2c(c1)OCCO2 | 12.7
74 | COc1ccc(C(=O)NCC2OCCc3ccccc32)cc1OC (centres unmarked) | 1.03
75 | CCCCC(=O)N/N=C/c1c(O)n(CCC2=CCCCC2)c(=O)[nH]c1=O | 11.7
76 | CCN(CC)c1ccc(C(=O)NC(=S)N2CCN(Cc3ccc4c(c3)OCO4)CC2)cc1 | 10.1
77 | Cc1c(C(=O)N2CCc3ccccc3C2)oc2ccc(S(=O)(=O)N3CC(C)CC(C)C3)cc12 (centres unmarked) | 0.934
78 | COc1ccccc1CNC(=O)C1CCN(S(=O)(=O)c2cccc3cccnc23)CC1 | 0.296
79 | COc1ccc(/C=C/C(=O)c2ccccc2O)cc1 | 5.77
80 | Cc1ccc(C(=O)CC2(O)C(=O)N(Cc3ccc4c(c3)OCO4)c3ccccc32)cc1 (centres unmarked) | 2.41
81 | CCCc1[nH]nc2c1C(c1ccccc1OCC)C(C#N)=C(N)O2 (centres unmarked) | 8.52
82 | O=C(Cc1ccc(Cl)cc1)NC1CCCCCC1 | 14.5
83 | COc1ccc(-c2sc3cc4c(cc3c2C#CC2(N)CCCCC2)OCO4)cc1 | 17.6
84 | COc1ccc(-c2cn(CCC(=O)NCc3ccc(C)cc3)c(-c3ccncc3)n2)cc1 | -3.49
85 | COc1cccc(C(=O)Nc2cc(C)on2)c1OC | 14.3
86 | Cn1c(N)c(S(=O)(=O)N2CCCC2)c(=O)n(C)c1=O | 21.3
87 | CCC(=O)Nc1sc2c(c1C#N)CCC2 | 9.7
88 | COc1ccc(/C=C(/NC(=O)c2cccc([N+](=O)[O-])c2)C(=O)O)cc1 | 9.26
89 | COCc1cc(CN2CCN(CCCc3ccccc3)C(CCO)C2)ccc1OC (centres unmarked) | -18.2

— publication PMC4336329 (PLoS ONE, 2015)
